# Assay results as given in the supplement of paper PMC3334620.
# In all, about 33,000 sequences were measured (“E-score (-0.5 to 0.5)”: median about -0.041, highest 2% from about 0.37 on). The list shows a part of the results.
# Biological target: T1, Ecm22 (UniProt Q05958)
# T1 sequence: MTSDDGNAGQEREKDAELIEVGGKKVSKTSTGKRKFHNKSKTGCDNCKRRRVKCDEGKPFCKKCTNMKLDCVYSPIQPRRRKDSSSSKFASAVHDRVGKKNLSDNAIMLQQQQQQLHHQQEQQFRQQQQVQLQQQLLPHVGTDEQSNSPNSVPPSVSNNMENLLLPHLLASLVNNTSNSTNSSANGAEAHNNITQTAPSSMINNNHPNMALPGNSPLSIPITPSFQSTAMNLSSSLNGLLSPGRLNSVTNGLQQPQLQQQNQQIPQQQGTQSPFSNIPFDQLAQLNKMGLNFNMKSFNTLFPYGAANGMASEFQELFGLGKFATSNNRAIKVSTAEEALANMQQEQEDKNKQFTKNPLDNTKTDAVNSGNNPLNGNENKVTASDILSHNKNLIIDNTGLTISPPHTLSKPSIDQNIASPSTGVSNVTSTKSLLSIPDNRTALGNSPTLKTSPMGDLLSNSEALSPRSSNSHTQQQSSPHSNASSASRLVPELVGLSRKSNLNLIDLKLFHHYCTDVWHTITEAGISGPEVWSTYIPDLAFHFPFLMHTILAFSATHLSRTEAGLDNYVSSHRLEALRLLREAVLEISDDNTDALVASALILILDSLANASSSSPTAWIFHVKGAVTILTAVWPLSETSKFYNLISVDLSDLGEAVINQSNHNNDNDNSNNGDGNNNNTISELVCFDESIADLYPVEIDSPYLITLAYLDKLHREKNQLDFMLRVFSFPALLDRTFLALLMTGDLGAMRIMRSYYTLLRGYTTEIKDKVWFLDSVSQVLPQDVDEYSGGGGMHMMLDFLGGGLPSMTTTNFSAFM
# Experiment: PBM E-score (8-mer binding enrichment) (E-score (-0.5 to 0.5)); higher = stronger / more preferred TF binding; most listed sequences are background and not binding sites
# Settings: protein concentration: 200 nM; construct: GST-full length
# Procedure: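 Universal 'all 10-mer' protein binding microarrays (Agilent AMADID 015681) probed with GST-tagged S. cerevisiae TFs (full-length or DBD) made by in vitro transcription/translation (PURExpress), about 100-200 nM. Bound TF was detected with fluorescent anti-GST. Each ungapped 8-mer (which stands for itself and its reverse complement) is scored by the PBM enrichment score (E-score), a modified Wilcoxon-Mann-Whitney statistic from -0.5 to +0.5, computed with the Universal PBM Analysis Suite. Scale: above 0.35 generally sequence-specific binding.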
row,Sequence,PBM E-score
1,CAGTAATG,-0.161
2,ATACTCTA,0.0524
3,AACCCGTC,0.0827
4,GCAGTAAC,-0.036
5,GTCGCCGA,0.0874
6,ACTTCAAC,-0.0327
7,AAAAACTA,0.0932
8,GAGACACA,-0.237
9,ATTAGATG,0.137
10,CATTCAAC,-0.0303
11,CATCCGGC,-0.122
12,TAAGGGAA,0.171
13,TTAAAGAA,-0.0287
14,CGTTATAC,0.335
15,ACACCCAC,-0.0883
16,CCTCGGCC,-0.0633
17,CAAATAAG,-0.177
18,AGTAACTA,0.161
19,AATTGAGG,-0.113
20,GCCCAAGA,-0.196
21,AAGATCCT,-0.0266
22,ATATATCA,-0.0776

row,Sequence,PBM E-score
1,GTGGTCCA,-0.0936
2,GTGCATAA,-0.0669
3,ACCATGAA,-0.0282
4,ACCAAACT,0.0445
5,GCTTCCAC,-0.238
6,AGTTGGCC,-0.165
7,CGGGCGCC,-0.0939
8,ATGCCAGA,-0.0243
9,AGAGGGGC,-0.187
10,AATCACCC,-0.054
11,GCTGTAAC,0.0478
12,AAAGATAC,0.109
13,ACCGCCTC,0.0157
14,ACGGGACA,0.182
15,CAGATTTA,0.156
16,AAGGCAAC,-0.0255
17,CTATTCAG,-0.0277
18,ACAGATCT,-0.159
19,AAGGTCGC,0.0632
20,ACACTTGG,-0.212
21,GGTGCCAA,-0.179
22,ACTTCGAG,-0.105

row,Sequence,PBM E-score
1,ATCGGCTC,0.104
2,AAACATCA,-0.118
3,AGGTAGGG,-0.125
4,AGACGTTA,-0.139
5,GACCTTGA,-0.228
6,AGAATTCC,-0.0782
7,TGTCAGAA,-0.177
8,GCTACAAA,-0.0555
9,ATGCAACC,0.027
10,ACGTTGAA,0.0823
11,AAGGATGA,-0.113
12,CATGCACG,-0.0495
13,CACTATTC,-0.0887
14,CTGGACCA,-0.139
15,AAGAGATG,-0.171
16,AAGTTCGG,0.0304
17,GGATTAAC,0.0195
18,CCCGCCTA,-0.0427
19,CGTCTAGC,-0.0148
20,AATAAGAC,-0.171
21,AAGCCCGA,-0.0754
22,CGAGAATC,0.227

row,Sequence,PBM E-score
1,ATCGACCA,-0.0651
2,ACACAATC,-0.0435
3,AGGACTCG,0.0228
4,GACAAATA,0.0672
5,CAGGGATC,-0.2
6,ACCCGCAC,-0.063
7,TGATTGCA,-0.0481
8,AAATCCCG,0.0266
9,AGGATTGC,-0.141
10,CAGACGGG,-0.169
11,ATGATATC,0.127
12,CGCCGCTC,0.0325
13,ATGAGCCA,-0.173
14,CCCCACGC,-0.344
15,GCTATGAC,-0.0387
16,AGCCAATC,-0.0209
17,ACGTCAGC,-0.0216
18,CCGTCACG,-0.141
19,GAGTGGAA,-0.03
20,AGGGCCAA,-0.381
